In paper PMC4336329 (PLoS ONE, 2015):
About 14,000 (4.5%) of roughly 310,000 compounds showed an effect of 50% or more. The effect is printed as a negative number. This is one part of the list.

Target: human ether-à-go-go-related gene (hERG) potassium channel (human, UniProt Q12809)
Test: primary screen, population patch clamp on CHO cells stably expressing hERG
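Further: peak tail current of the secondary pulse compared with the same well before compound.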

human ether-à-go-go-related gene (hERG) potassium channel, sequence (Q12809 whole entry, looked up): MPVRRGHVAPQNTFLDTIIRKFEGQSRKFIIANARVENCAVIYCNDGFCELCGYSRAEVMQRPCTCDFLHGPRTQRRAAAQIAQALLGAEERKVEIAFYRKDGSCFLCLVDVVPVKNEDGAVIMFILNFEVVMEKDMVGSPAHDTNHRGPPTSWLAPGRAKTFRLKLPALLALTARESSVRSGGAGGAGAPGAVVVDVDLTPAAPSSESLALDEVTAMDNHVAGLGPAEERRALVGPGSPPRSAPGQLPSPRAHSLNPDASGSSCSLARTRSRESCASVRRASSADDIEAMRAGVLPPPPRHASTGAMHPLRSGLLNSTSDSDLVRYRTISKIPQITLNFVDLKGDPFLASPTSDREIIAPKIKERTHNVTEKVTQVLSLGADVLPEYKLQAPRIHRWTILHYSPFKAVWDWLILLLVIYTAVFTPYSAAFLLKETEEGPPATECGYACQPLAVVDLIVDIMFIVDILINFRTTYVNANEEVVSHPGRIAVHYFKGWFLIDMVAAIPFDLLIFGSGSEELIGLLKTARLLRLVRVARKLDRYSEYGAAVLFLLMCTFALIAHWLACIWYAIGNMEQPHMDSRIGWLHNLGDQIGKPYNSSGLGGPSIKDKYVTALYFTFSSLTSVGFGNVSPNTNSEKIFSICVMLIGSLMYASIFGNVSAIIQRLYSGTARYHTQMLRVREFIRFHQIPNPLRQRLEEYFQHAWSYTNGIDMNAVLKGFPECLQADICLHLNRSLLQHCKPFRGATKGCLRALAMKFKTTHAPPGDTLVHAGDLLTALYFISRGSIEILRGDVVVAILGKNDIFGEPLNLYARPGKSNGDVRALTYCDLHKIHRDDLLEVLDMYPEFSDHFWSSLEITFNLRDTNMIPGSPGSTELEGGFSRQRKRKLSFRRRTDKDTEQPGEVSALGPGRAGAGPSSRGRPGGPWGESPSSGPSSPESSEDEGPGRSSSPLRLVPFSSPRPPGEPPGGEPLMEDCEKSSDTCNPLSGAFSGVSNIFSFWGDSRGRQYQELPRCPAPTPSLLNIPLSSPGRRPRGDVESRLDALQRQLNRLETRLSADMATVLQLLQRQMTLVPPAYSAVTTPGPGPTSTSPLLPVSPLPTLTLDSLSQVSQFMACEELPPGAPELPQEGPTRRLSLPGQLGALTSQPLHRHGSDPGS

SMILES | hERG current change (%, negative = inhibition) at 10uM [%]
Cc1cc(OC(=O)N(C)C)n(-c2ccccc2)n1 | 10.7
O=C(Cc1ccccc1)Nc1cccc(C(=O)O)c1O | -5.26
S=C(NC1CCCC1)NC1CCCC1 | 16.7
Cc1ccccc1OC(C)C(=O)N1CCC(Cc2ccccc2)CC1 (centres unmarked) | -17.5
CC(C)CN(C(=O)C1CCCCC1)C1CCS(=O)(=O)C1 (centres unmarked) | 10.4
CCNc1nc2c(c(=O)n(Cc3ccccc3)c(=O)n2C)n1Cc1ccccc1 | -22.3
CSCCC(NS(=O)(=O)c1ccccc1F)C(=O)N1CC=C(c2ccccc2)CC1 (centres unmarked) | 18.6
CCOC(=O)c1ccc(NC(=O)CSc2nnc(CNc3ccc(C)cc3)n2C)cc1 | 1.49
COc1ccc(CCn2c(=N)c(C(=O)NCC3CCCO3)cc3c(=O)n4cccc(C)c4nc32)cc1OC (centres unmarked) | -80.9
CC(C)C(C(=O)NCc1ccco1)N(C(=O)CNS(=O)(=O)c1ccc(Cl)cc1)C1CCCC1 (centres unmarked) | -8.85
COC(=O)Cc1cc(=O)n(-c2nc3ccccc3[nH]2)[nH]1 | -23.3
COc1ccc(NC(=O)C2CCCN(c3nc(C)cc(C)n3)C2)cc1 (centres unmarked) | 12.4
CN(C)S(=O)(=O)c1ccc(NCC2COc3ccccc3O2)c([N+](=O)[O-])c1 (centres unmarked) | -7.72
Cc1cc(-c2ccc(C(C)C)c(S(=O)(=O)N3CCC(C)CC3)c2)on1 | 2.65
O=C(C1CC1)N1CCN(c2ccc([N+](=O)[O-])cc2)CC1 | -61.8
CC(CC1CC(C)(C)OC1=O)C(=O)Nc1ccc([N+](=O)[O-])cc1 (centres unmarked) | -51.4
Cc1c(C)c2c(OCC(=O)N3CCC(O)CC3)cc3c(c2oc1=O)CCC(C)(C)O3 | -10.3
CCCCC1(CC(=O)OCC)C(=O)N(c2ccccc2)N(c2ccccc2)C1=O | -9.4
COc1ccc(C(O)CNC(C)C)c(F)c1OC (centres unmarked) | 0.97
COc1ccc(-n2c(C)cc(/C=C(\C#N)C(=O)NCc3ccco3)c2C)cc1 | -5.18
CC(Oc1ccccc1)C(=O)NCc1cccnc1 (centres unmarked) | 10.5
CN1C(=O)NC(=O)/C(=C/c2ccc([N+](=O)[O-])o2)C1=O | 12.9
CC(C)C(=O)Nc1ccc(N2CCCC2)cc1 | 21.5

SMILES | hERG current change (%, negative = inhibition) at 10uM [%]
CCCCc1cc(=O)oc2cc(C)cc(OC(C)C(=O)NCc3cccnc3)c12 (centres unmarked) | -19.7
Cc1ccc(C(N)=O)cc1S(=O)(=O)Nc1cccc(C)c1C | -5.98
Cc1nc(C(=O)N2CCC(n3nccc3NC(=O)Nc3ccccc3Cl)CC2)cs1 | 10.9
CN(C)CCC(=O)N1c2ccccc2Sc2ccc(Cl)cc21.Cl | -6.12
Cc1ccc(N(Cc2ccccc2)C(=O)c2ccc(Cl)c(S(=O)(=O)N3CCOCC3)c2)cc1 | -70.3
CCC(CC)NC(=O)CO/N=C/c1ccc(Cl)cc1Cl | 10.2
COc1ccc(OCC(=O)N2CCN(C(=O)c3cccc(F)c3)CC2)cc1 | -7.41
COc1ccc(-c2cc(C(=O)N3CCN(c4ncccn4)CC3)c3ccccc3n2)cc1 | -33.4
CCN(CC)CCNCc1cc(Cl)ccc1OCc1ccccc1F.Cl | -72.8
CC1CCC(C(C)C)C(OC(=O)COC(=O)c2ccc(=O)[nH]c2)C1 (centres unmarked) | -8.28
Cc1ccc(C(=O)C(C)OC(=O)Cn2[nH]c(=O)c3ccccc3c2=O)cc1C (centres unmarked) | 12
COc1ccc(N=C2NC(=O)/C(=C/c3ccco3)S2)cc1 | 19.1
CCCCOc1ccc(C(=O)NCC(=O)N2CC(C)CC(C)C2)cc1 (centres unmarked) | -26.7
CC1CCN(Cc2c(C(=O)N/N=C/c3ccccc3O)nnn2-c2nonc2N)CC1 | 14.6
CCCn1c2ccccc2c2nnc(SCC(=O)OCC)nc21 | -16.9
COc1cc(/C=N/N=C2/NC(=O)C(CC(=O)O)S2)ccc1OCc1ccc(Cl)cc1 (centres unmarked) | 20.2
C=Cn1ccnc1CC(O)c1ccc(OC)cc1 (centres unmarked) | 9.75
CCNc1nc(=S)nc(NC(C)C)[nH]1 | 29.6
Nc1nnc(-c2cn(-c3ccccc3)nc2-c2ccc(Cl)cc2)o1 | 12.7
COc1cc(OC)c(C(=O)O/N=C(\N)c2cccc(C)c2)cc1OC | 0.724
CCC(C)n1c(NC(=O)c2ccccc2)c(C#N)c2nc3ccccc3nc21 (centres unmarked) | 0.57
COn1c(-c2ccc(Cl)cc2)nc2ccc(Cl)cc21 | -4.56
O=C(OCC(=O)N1CCOCC1)c1ccc(Cl)cc1[N+](=O)[O-] | 2.42

SMILES | hERG current change (%, negative = inhibition) at 10uM [%]
Cc1ccc(S(=O)(=O)CCC(=O)OCC(=O)NCCc2ccc(S(N)(=O)=O)cc2)cc1 | 11.7
Cc1ccc2cc3cc(C(=O)N4CCN(C(=O)c5ccco5)CC4)sc3nc2c1 | -28.6
CCOc1ccc(-n2c(O)c(/C=N/Nc3nnc(C)c(=O)[nH]3)c3ccccc3c2=O)cc1 | -0.575
N#CC12CCCCC1CC1CCCCC1(C#N)N2CCO (centres unmarked) | 6.59
Cc1ccc(S(=O)(=O)CC(=O)NC(C)(C)C)cc1 | 27.2
COc1ccccc1OCc1nnc(SCC(=O)Nc2ccc(N3CCOCC3)cc2)n1C | 2.8
COc1ccc(-c2ocnc2C(=O)NCc2nn(-c3ccccc3)nc2C)cc1 | 5.05
O=C(COc1cccc(-n2cnnn2)c1)NCCC1=CCCCC1 | -20.5
CCOC(=O)C1=C(C)NC(=O)NC1/C=C\c1ccccc1 (centres unmarked) | 17.5
N/C(=N\OC(=O)c1ccc(Cl)cc1[N+](=O)[O-])c1cccnc1 | -11.3
COc1cc(C(=O)N(Cc2ccccc2)c2cccc(C)c2)ccc1OC(F)F | 21.6
CCn1c(=O)cc(OCC(=O)N(C)c2ccccc2F)c2ccccc21 | -17.8
CCOc1ccc2cc(S(=O)(=O)N3CCN(C)CC3)ccc2c1 | -15.3
CCO[C@H]1OC(C(=O)NC2CC2)=C[C@@H](c2ccc3c(c2)OCO3)[C@@H]1CCCO | 7.42
CCN(CC)S(=O)(=O)c1ccc(OC)c(NC(=O)COc2ccc3c(C)cc(=O)oc3c2)c1 | 10.2
O=C(N/N=C/c1ccc(Br)s1)c1c[nH]c2ccccc12 | 7.32
CN(C)N1C(=O)CC(NNC(=O)c2ccncc2)C1=O (centres unmarked) | -9.24
Cc1ccc(SCC(=O)NNC(=O)c2ccccc2)c(C)c1 | 4.32
COCCNCCCOc1ccc(C)cc1Br | -22.7
O=C(Cn1ncc2c3ccccc3n(Cc3ccc(F)cc3)c2c1=O)N1CCN(c2ncccn2)CC1 | -16.2
COc1ccc(NC(=O)COC(=O)c2ccc(Cl)c(S(N)(=O)=O)c2)c([N+](=O)[O-])c1 | -2.65
CC(CO)N1CCS(=O)(=O)CC1 (centres unmarked) | 9.55
O=C(c1ccc(Cn2cnnn2)cc1)N1CCCC(Nc2ccc(F)c(F)c2)C1 (centres unmarked) | 0.716

SMILES | hERG current change (%, negative = inhibition) at 10uM [%]
O=C(CC1CCOCC1)Nc1ccc(Cl)c(Cl)c1 | 0.589
O=c1[nH]c(SCc2ccccc2[N+](=O)[O-])nc2nc[nH]c12 | 11.2
CCOC(=O)C1CCN(C(=O)COC(=O)c2ccc3[nH]c4c(c3c2)CCCC4)CC1 | 8.13
CCc1ccc(C(=O)COC(=O)CCc2nc3ccccc3c(=O)[nH]2)cc1 | -0.315
CC(=O)/C(C#N)=C1\NC(=O)C(Cc2ccc(C)c(C)c2)S1 (centres unmarked) | 3.01
CCCc1ccc(-c2ccc(C(=O)O)cc2)nc1 | 6.13
COc1ccc(C(=O)NC(=S)Nc2ccc(CN3CCOCC3)cc2)cc1 | -43.8
COc1cccc(C2NC(=O)c3sc(=S)n(-c4ccccc4)c3N2)c1 (centres unmarked) | -12.8
CCCCc1nc2ccccc2c(=O)n1-c1ccc(Cl)cc1[N+](=O)[O-] | 31.4
CCc1cccc(CC)c1NC(=O)CSc1nnc(C2CC2)n1C | 8.69
O=S(=O)(c1cccs1)N1CCN(c2ccccc2F)CC1 | -6.83
C=CCc1cc(OC)ccc1OCCN(C)Cc1ccccc1.O=C(O)C(=O)O | -16.6
CCC(C)NC(=O)CN(c1ccc(OC)cc1)S(=O)(=O)c1ccc(NC(C)=O)cc1 (centres unmarked) | -9.39
O=C(CNC(=O)N1CC(=O)Nc2ccccc21)Nc1nccs1 | 12
CS(=O)(=O)N(CC(=O)Nc1ccc(Br)cc1F)C1CCCCC1 | 0.49
Cc1ccccc1CNCCCSc1ncccn1.Cl | 21.1
CCN1/C(=C/c2ccc3cc(C)ccc3[n+]2CC)Sc2ccccc21.[I-] | -90.6
COC(=O)C1C(=O)C2=C(CC1C)Nc1ccccc1NC2c1cccs1 (centres unmarked) | -0.565
Cc1nc(SCCC(=O)O)c2ccccc2n1 | 10
CCOC(=O)C1CCCN(c2c(Nc3ccc(OCC)cc3)c(=O)c2=O)C1 (centres unmarked) | -3.97
